Each structure is given as a SMILES string. The campaign covered roughly 46,000 compounds. About 60 (0.1%) were called active. Roughly 3% stayed inconclusive and do not appear here. The call rests on the fitted dose curve; in most records, active means well fitted inhibition curve with a large enough effect; inconclusive means small, poorly fitted or top-dose-only effect; inactive means no such curve, though single readings can be large or run the other way. The list shows a part of the results.

The test is described as follows: Primary qHTS assay for Inhibitors of ovarian cancer metastasis using an organotypic tumor microenvironment (TME) model. Further: nearly all actives have a fitted effect of over 65% in size.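 On activity change, negative = inhibition: plate controls were DMSO wells for no effect and tomatine positive control wells for full effect.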 The note with it: SKOV3ip1-GFP adhesion/invasion on 3D omental model, fluorescence; series mostly up to 45.8 µM; activity change, negative = inhibition: at the top concentration. The method, boiled down: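 qHTS, 4-pt dose (0.36-46 umol/L); SKOV3ip1-GFP, 1,200 cells/well, no FBS; primary omental fibroblast/mesothelial co-culture 48 h pre-grown; 2 h RT + 16 h 37 C; PBS wash, 4% PFA; GFP count 488/509 nm.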
For `CCc1ccc(C2=C(C)C(N3CCC(C(=O)NCc4ccccc4)CC3)=NS2(=O)=O)cc1`, the “activity change, negative = inhibition” value was inactive: -6.69%.
As to `Cc1ccc2c(c1)-c1c(cnc3cc(-c4ccc(F)cc4)nn13)CO2`, the “activity change, negative = inhibition” value is inactive: 42.6%.
The same measure, in the same setting: next, `COc1cccc(NC(=O)CCc2c(C)nc3nc(CNC(=O)c4cccc(F)c4)nn3c2C)c1`: inactive: -9.84%; `CCCCOc1cccc(C(=O)Nc2cc(NC(=O)c3ccco3)ccc2OC)c1`: inactive: -3.18%.
For the compound `CCc1ccc(CN2CCc3nc(N4CCN(c5ccccc5F)CC4)ncc3C2)cc1`, the “activity change, negative = inhibition” value was inactive: 4.95%.
As to `CCc1cc(C(=O)Nc2sc(C)c(CC)c2C#N)no1`, the result was inactive.
As for `Cc1ccc(Cl)cc1N1CCN(C(=O)c2c(C)oc3ncnc(N4CCCCC4)c23)CC1`, the “activity change, negative = inhibition” value is inactive: 0.637%.
On to `C#CCOc1ccc(-c2nnc(Nc3ccc(NC(C)=O)cc3)c3ccccc23)cc1`, for which the result was inactive.
In the case of `Cc1oc2ccc(O)c(CN3CCCC3)c2c1C(=O)Nc1ccc(C(C)C)cc1`, the “activity change, negative = inhibition” value is inactive: -1.25%.
Regarding `Cc1c(Cl)cccc1NC(=O)C1CCCN(c2ncnc3onc(C)c23)C1` (configuration not stated), the “activity change, negative = inhibition” value was inactive: -1.22%.
Still for that read-out and setting: the figure for `CCOC(=O)N1CCC(NC(=O)c2cnn(-c3cccc(F)c3)c2-n2cccc2)CC1` is inactive: -7.18%; for `Cc1ccc(-c2nnc(Nc3cccc(O)c3)c3ccccc23)cc1S(=O)(=O)NCC1CCCO1` (configuration not stated) it is inactive: -7.97%.
Same read-out and setting: the figure for `Cc1ccc(Cl)cc1N1CCN(C(=O)c2ccc3c(c2)CCN3S(=O)(=O)c2ccccc2)CC1` is inactive: 0.245%; for `COc1ccc(CCC(=O)NCc2nc3cccnc3n2Cc2ccc(F)cc2)cc1` it is inactive: 1.72%.
As for `CN(CC(=O)Nc1ccccc1F)S(=O)(=O)c1ccc2c(c1)c(=O)n(C)c(=O)n2C`, the compound was classed as inactive.
With `CC1CCN(S(=O)(=O)c2ccc3c(c2)c(=O)c(C(=O)NC(C)c2ccccc2)cn3C)CC1` (configuration not stated), the “activity change, negative = inhibition” value was inactive: -2.67%.
As for `O=C(NCc1ccccc1Cl)c1ccc2c(c1)N(Cc1ccccc1)C(=O)CS2`, the compound was called inactive.
As to `NS(=O)(=O)c1ccc(CCNc2ncnc3c2cnn3-c2cccc(Cl)c2)cc1`, the “activity change, negative = inhibition” value is inactive: -4.47%.
In the case of `COc1ccc(CNC(=O)c2cc(=O)[nH]c3ccc(S(=O)(=O)N4CCCC4)cc23)c(OC)c1`, the call was inactive.
For the compound `O=C(NCCc1ccccc1)C1CCN(Cc2cc3ccccc3n2Cc2cccc(Cl)c2)CC1`, the “activity change, negative = inhibition” value was inactive: 0.297%.
The same measure, in the same setting: next, `O=C(NCCc1ccccc1)c1ccc2c(c1)N(Cc1ccccc1)C(=O)c1ccccc1S2(=O)=O`: inactive: 2.29%; `COc1cccc(Nc2sc(C(=O)c3ccc(Cl)cc3)c(N)c2C(=O)NCc2ccc(C)cc2)c1`: inactive: -2.81%; `COc1ccc(Cl)cc1NC(=O)c1ccc2c(c1)CCN2S(C)(=O)=O`: inactive: 5.74%.
Consider `CCOc1cc(C(=O)Nc2cccc3cccnc23)cc(OCC)c1OCC`, for which the “activity change, negative = inhibition” value is inactive: -1.3%.
The same measure, in the same setting: the figure for `Cc1cc(NC(=O)CSc2nc(-c3ccccc3C)nc3c2c(=O)n(C)c(=O)n3C)no1` is inactive: 5.53%.
On the same count and under the same terms, next, `CCOC(=O)CN(Cc1ccccc1)C(C(=O)NC1CCCCC1)c1ccc(OC)cc1` (configuration not stated): inactive: -8.26%.
For the compound `CC(=O)c1cccc(NC(=O)C(CC(C)C)NS(=O)(=O)c2ccc3c(c2)CCN3C(C)=O)c1` (configuration not stated), the compound was called inactive.
Still for that read-out and setting: next, `COc1ccc(-c2cc3nc(C)c(CCC(=O)N4CCN(c5ccc(F)cc5)CC4)c(C)n3n2)c(OC)c1`: “inactive”.
On to `Cc1ccc(Nc2nc3ccccc3c3nnc(C)n23)c(C)c1`, for which the “activity change, negative = inhibition” value was inactive: 9.05%.
As for `CCCCN(CCCC)CCNC(=O)CN1C(=O)CSc2ccc(S(=O)(=O)N3CCOCC3)cc21`, the “activity change, negative = inhibition” value is inactive: 5.29%.
`CC(=O)c1cccc(Nc2cc(C)nc3nc(Cc4ccccc4)nn23)c1`: the outcome was inactive.
With `COc1ccccc1OCC(=O)NC1CC(=O)N(c2ccc3c(c2)OCCO3)C1` (configuration not stated), the compound was classed as inactive.
The same measure, in the same setting: next, `COc1ccc2cc(-c3nnc(Nc4ccccc4)s3)c(=O)oc2c1`: “inactive”.
Take `O=C(Nc1cccc(C(F)(F)F)c1)N1CC2CCCN2c2ccccc21` (configuration not stated): the “activity change, negative = inhibition” value was inactive: -15.3%.
As to `Cc1cccc(NC(=O)Cn2nc3c4ccccc4n(Cc4ccccc4)cc-3c2=O)c1`, the result was inactive.
With `COc1ccc(-n2nc(C(=O)Nc3ccc(Cl)cn3)c3c4ccccc4n(C)c3c2=O)cc1`, the “activity change, negative = inhibition” value was inactive: 0.866%.
`CCCOc1ccc(CNC(=O)c2ccc(C)c(-n3c(C)nc4cccnc43)c2)cc1`: the “activity change, negative = inhibition” value was inactive: 0.292%.
In the case of `Cc1oc2ncn(C)c(=O)c2c1C(=O)NCCCN1CCCCC1C` (configuration not stated), the “activity change, negative = inhibition” value is inactive: 1.27%.
Still for that read-out and setting: next, `CC(=O)c1cccc(NC(=O)Nc2nnc(N3CCCC3)s2)c1`: inactive: 11.8%.
Turning to `CC(=O)c1cc(-c2ccc(F)cc2)n(CC(=O)NC2CCC(C)CC2)c1C` (configuration not stated), the compound was classed as inactive.
As to `COc1cccc(CNC(=O)c2ccc3c(=O)n4nc(Nc5ccccc5)sc4nc3c2)c1`, the “activity change, negative = inhibition” value was inactive: 1.18%.
Turning to `CCOC(=O)c1c(C)n(-c2ccccc2)c2ccc(OC(=O)c3cccc(C)c3)cc12`, the “activity change, negative = inhibition” value was inactive: 0.52%.
For `CCN1CCN(C(c2ccc(C)cc2)c2c(O)cc(C)n(Cc3ccco3)c2=O)CC1` (configuration not stated), the “activity change, negative = inhibition” value was inactive: 2.96%.
As for `CN(Cc1ccccc1)S(=O)(=O)c1ccc2[nH]c3c(c2c1)CCCCC3`, the “activity change, negative = inhibition” value was inactive: -1.73%.
The same measure, in the same setting: next, `Cc1ccc(N2CCN(C(=O)c3cnn(-c4ccc(F)cc4F)c3C3CCN(C(=O)OC(C)(C)C)CC3)CC2)c(C)c1`: inactive: 7.3%.
Turning to `COc1ccc(-n2nc(C(=O)O)c(=O)n(C)c2=O)cc1`, the “activity change, negative = inhibition” value is inactive: 0.925%.
The same measure, in the same setting: next, `O=C(O)CCC=CCC[C@@H]1[C@H](N2CCCCC2)[C@@H](O)C[C@@H]1OCc1ccc(-c2ccccc2)cc1`: inactive: -3.37%.

Values taken from PubChem BioAssay AID1963576 (National Center for Advancing Translational Sciences (NCATS), 2024).
